Results taken from PubChem BioAssay AID445 (National Center for Advancing Translational Sciences (NCATS), 2006).
Hit rate of the full screen: of about 110,000 compounds, about 40 (0.04%) were called active. Inconclusive results, whose numbers are uncertain, are shown with a selection of clear calls. Calls follow the shape of the dose curve; as a rule, active = well fitted curve in the direction sought with a large enough effect in the signal ratio (not every such curve was filed as active); inconclusive = small, poorly fitted or top-dose-only effect, or a change in a side signal; inactive = flat fitted curve, though single readings scatter; the % refers to the signal ratio. Where the call is inconclusive, the potency comes from a doubtful curve fit.

Assay: IkB Signaling;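 as to IkBa stabilization activation: 0% = basal untreated cells and 100% = reference inhibitor full response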
Settings: ABC-DLBCL IkBa-CBG/CBR dual luciferase ratio (green luciferase fused to IkBa over red control in OCI-Ly3 lymphoma cells), 4 h; IkBa stabilization activation: at 57.1 µM (top of the series), scaled: untreated 0%, proteasome inhibitor 100% unless noted
Summary of the method: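 In this assay, an IκBα–CBG68 fusion accumulates when IKK-driven degradation is blocked; native CBR normalizes for cell number. OCI-Ly3 cells were treated 4 h with compound and doxycycline, then green and red light read after Chroma-Glo addition.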
Potency is read from the fitted curve at half-maximal effect.

Structure (SMILES)	IkBa stabilization activation	Potency
CCOc1ccc(N(CC(=O)Nc2ccc(C)cc2)S(=O)(=O)c2c(C)noc2C)cc1	inactive	–
CCCCSc1nnc2c(n1)OC(c1ccc(C)s1)Nc1ccccc1-2 (stereo not given)	–	inconclusive: 39.8 µM [signal inhibitor]
O=C(C1CCCN(S(=O)(=O)c2cccs2)C1)N1CCC(N2CCCCC2)CC1 (stereo not given)	inactive	–
CCCN(C(=O)c1cn(CC(C)C)c(=O)c2cc(OC)c(OC)cc12)c1cccc(C)c1	–	inconclusive: 31.6 µM [signal inhibitor, single point]
Cc1cc(S(=O)(=O)Nc2ccc3[nH]c(=O)sc3c2)ccc1F	inconclusive: 3.73% [signal inhibitor]	–
Cc1ccc(S(=O)(=O)N(CC(=O)Nc2c(C)cccc2C)c2cccc(Cl)c2)cc1	inconclusive: 3.13% [signal inhibitor]	–
N/C(=N\O)c1cn([C@@H]2O[C@@H](CO)[C@H](O)[C@@H]2O)c2ncnc(NO)c12	inactive: 8.03% [at 11.4 µM, scaled: untreated 0%, proteasome inhibitor 100%]	–
COc1ccc2[nH]cc(CCNc3ncncc3-c3ccc4c(c3)OCO4)c2c1	inconclusive: 14.6% [signal inhibitor] [at 11.4 µM, scaled: untreated 0%, proteasome inhibitor 100%]	–
COC(=O)c1cc(C)nc2c1c(=O)nc(SCc1c(C)cc(C)cc1C)n2C1CC1	inconclusive: 4.83% [signal inhibitor]	–
COc1cccc(Cn2c(=O)c(-c3ccc(F)cc3)nc3cnc(N4CCOCC4)nc32)c1	inactive: -1.59% [at 11.4 µM, scaled: untreated 0%, proteasome inhibitor 100%]	–
CCNC(=O)CC1C(=O)N(c2ccccc2)C(=O)N1Cc1ccc(OC)cc1 (stereo not given)	inactive	–
CCc1ccc(-c2nc(CN3CCC(C(=O)N4CCN(c5ccccc5)CC4)CC3)c(C)o2)cc1	inconclusive: 1.2% [signal inhibitor]	–
Cc1ccc(NC(=O)COc2ccc(-c3nn(C)c(=O)c4ccccc34)cc2)c(C)c1	inconclusive: 6.61% [signal inhibitor]	–
COC(=O)c1cc(NC(=O)CC2SCCNC2=O)cc(C(=O)OC)c1 (stereo not given)	inactive	–
CCOc1ccc(CCNC(=O)C2CCN(Cc3nc(-c4ccccc4C)oc3C)CC2)cc1OCC	inconclusive: -0.206% [signal inhibitor]	–
Fc1ccc(Nc2c(-c3ccco3)nc3ccccn23)cc1	inconclusive: 2.84% [signal inhibitor]	–
Cn1c(=O)c(=O)n(C)c2cc(S(=O)(=O)Nc3ccc(Cl)c(C(F)(F)F)c3)ccc21	inconclusive: 8.49% [signal inhibitor]	–
COCCNc1ccnc(-c2ccccc2CN(C)C)n1	inactive: 0.0128% [at 11.4 µM, scaled: untreated 0%, proteasome inhibitor 100%]	–
CC(C)(C)c1ccc(C(=O)N2CCN(Cc3cc(=O)n4nc(-c5ccccc5F)sc4n3)CC2)cc1	inconclusive: -0.518% [signal inhibitor]	–
Cc1ccc(NC(=O)C2CCC(CNS(=O)(=O)c3ccc4c(c3)C(C)(C)C(=O)N4C)CC2)cc1 (stereo not given)	inactive	–
CCOc1ccc(CNC(=O)Cc2ccc(NC(=O)N3CCCCc4ccccc43)cc2)cc1OC	inactive	–
Cc1cc(NCCCN2CCOCC2)n2ncc(-c3ccccc3)c2n1	inactive	–

Structure (SMILES)	IkBa stabilization activation	Potency
Clc1ccc(-c2nnn3c2nc(NCc2ccc4c(c2)OCO4)c2ccccc23)cc1	–	inconclusive: 2.51 µM [signal inhibitor, full curve]
Cc1cccn2cc(CCNS(=O)(=O)c3ccc4c(c3)OCCO4)nc12	inactive	–
COc1ccc(NC(=O)c2cc(CC(C)C)on2)cc1OC	inactive	–
Nc1ccc2oc(-c3cccc(Br)c3)nc2c1	inactive	–
CCc1cccc(NC(=O)CS(=O)Cc2nc(-c3ccc(C)cc3)oc2C)c1 (stereo not given)	inconclusive: -5.68% [signal inhibitor]	–
COc1cccc(Cn2c(=O)c(-c3cccc(F)c3)nc3cncnc32)c1	inactive: -1.64% [at 11.4 µM, scaled: untreated 0%, proteasome inhibitor 100%]	–
CCCCNC(=O)CC1N=C2c3ccccc3N=C(SCC(=O)NCc3ccccc3Cl)N2C1=O (stereo not given)	inconclusive: -1.58% [signal inhibitor]	–
Cn1c(SCC(=O)NC2CCCC2)nnc1-c1ccc(S(=O)(=O)N2CCOCC2)cc1	inactive	–
Cc1ccc(NC(=O)CCC(=O)N2CCSc3ccccc32)cc1	inconclusive: 3.55% [signal inhibitor]	–
COc1cccc(C(=O)Nc2cccc(OCc3cc(=O)n4cccc(C)c4n3)c2)c1	inconclusive: 2.99% [signal inhibitor]	–
COC(=O)c1ccc(NC(=O)CC2C(=O)N(c3ccc(C)cc3)C(=O)N2Cc2ccc(OC)cc2)cc1 (stereo not given)	inconclusive: 5.81% [signal inhibitor]	–
CCc1ccccc1Nc1cc(C(=O)NCCCN(C)C2CCCCC2)c2ccccc2n1	inconclusive: -0.0861% [signal inhibitor]	–
Cc1ccc(C)c(N2CCN(C(=O)c3nn(C)c4c3CS(=O)(=O)c3ccccc3-4)CC2)c1	inconclusive: 0.245% [signal inhibitor]	–
Cc1ccn2c(Nc3ccccc3C)c(-c3cccnc3)nc2c1	inconclusive: -5.07% [signal inhibitor]	–
COc1cccc(C(=O)Nc2ncc3c(n2)CC(C)(C)CC3=O)c1	–	inconclusive: 15.8 µM [signal inhibitor, partial curve]
O=C(CCn1ccc2cc(S(=O)(=O)N3CCCC3)ccc21)NCc1ccccc1Cl	inconclusive: 0.153% [signal inhibitor]	–
CCC1CCCCN1C(=O)Cn1c(=O)n(CCCCCC(=O)NCc2ccccc2Cl)c(=O)c2sccc21 (stereo not given)	inconclusive: -1.5% [signal inhibitor]	–
CC(=O)Nc1ccc(C(=O)CSc2nnc(Cn3nnc4ccccc43)n2C)cc1	inactive	–
O=C(NCCc1ccc(Cl)cc1)c1ccc2c(c1)N(Cc1cccc(Cl)c1)C(=O)c1ccccc1S2(=O)=O	inactive	–
c1ccc(C(Cc2nc(-c3ccncc3)no2)c2ccccc2)cc1	inconclusive: -1.89% [signal inhibitor]	–
CCCc1cc(N2CCN(c3ccc(OC)cc3)CC2)n2cnnc2n1	inconclusive: 0.243% [signal inhibitor]	–
COc1ccc(C(=O)Nc2cccc(C)c2)cc1S(=O)(=O)N1CCOCC1	inactive	–

Structure (SMILES)	IkBa stabilization activation	Potency
CC(=O)C(C)Oc1ccc2c3c(c(=O)oc2c1C)CCCC3 (stereo not given)	inactive	–
COc1ccccc1-c1nc(SCC(=O)Nc2ccc(C)c(C)c2)n[nH]1	–	inconclusive: 31.6 µM [signal inhibitor, single point]
CCOC(=O)c1c(-c2cccs2)csc1NC(=O)CSc1ncn[nH]1	inconclusive: -1.98% [signal inhibitor]	–
CCN(CC)C(=O)COc1ccc(-c2nnc(Nc3ccc(OC)c(C(=O)NC)c3)c3ccccc23)cc1	inconclusive: 12.7% [signal inhibitor]	–
CC(NC(=O)c1cccs1)C(c1cccs1)N1CCN(c2ccccc2)CC1 (stereo not given)	inconclusive: 5.27% [signal inhibitor]	–
COc1ccc(OC)c(C(C(=O)NCc2ccco2)N(C(=O)Cn2nnc3ccccc32)C2CC2)c1 (stereo not given)	inactive	–
CCc1cccc(C)c1NC(=O)C(CC)Sc1nncn2c1cc1occc12 (stereo not given)	inconclusive: 4.06% [signal inhibitor]	–
CCS(=O)(=O)N1CCc2cc(C(=O)Nc3cc(OC)c(Cl)cc3OC)ccc21	inconclusive: 1.77% [signal inhibitor]	–
Cc1ccc(Nc2nc(C)c(NC(=O)c3ccc(C)cc3)c(Nc3ccc(C)cc3)n2)cc1	inconclusive: 2.51% [signal inhibitor]	–
CCCNc1nc2c(c(=O)n(C)c(=O)n2C)n1CC(O)COc1ccccc1 (stereo not given)	inconclusive: 6.36% [signal inhibitor]	–
Cc1ccc(NC(=O)Cn2cc(C(=O)C3CCCCC3)c3ccccc32)c(C)c1	inconclusive: 5.18% [signal inhibitor]	–
Cn1c(=O)n(C)c2cc(NS(=O)(=O)c3ccc(C(C)(C)C)cc3)c(NCc3ccccc3)cc21	–	inconclusive: 7.94 µM [signal inhibitor]
CCOC(=O)c1ccccc1NC(=O)C1COc2ccccc2O1 (stereo not given)	inactive	–
Cc1cccc(C(=O)Nc2nnc(S(=O)(=O)N3CCCc4ccccc43)s2)c1	inconclusive: -0.166% [signal inhibitor]	–
Fc1ccc(N2CCN(C(c3cccs3)c3nnnn3C3CCCC3)CC2)cc1 (stereo not given)	inconclusive: 2.13% [signal inhibitor]	–
Cc1ccc(-c2nnc(Nc3cccc(Br)c3)c3ccccc23)cc1S(=O)(=O)NCC1CCCO1 (stereo not given)	inconclusive: 13.2% [signal inhibitor]	–
CCC(C(=O)Nc1cccc(C#N)c1)n1nc(-c2ccccc2)ccc1=O (stereo not given)	inconclusive: 0.511% [signal inhibitor]	–
O=C(c1ccc2c(c1)N(Cc1ccc(Cl)cc1)C(=O)c1ccccc1S2(=O)=O)N1CCc2ccccc21	inconclusive: 2.15% [signal inhibitor]	–
COc1ccc(-c2cc(C(=O)N3CCCc4ccccc43)no2)cc1	inconclusive: -1.13% [signal inhibitor]	–
CCOc1ccc(C2C(=O)N(C3CCCCCC3)CC(=O)N2CCc2ccc(Cl)cc2)cc1OC (stereo not given)	inconclusive: -1.62% [signal inhibitor]	–
Cc1cnc(CNc2nc(-c3ccoc3)nc3ccccc23)cn1	inactive: -1.43% [at 11.4 µM, scaled: untreated 0%, proteasome inhibitor 100%]	–
